In PubChem BioAssay AID686978 (National Center for Advancing Translational Sciences (NCATS), 2013):
Among all 420,000 compounds or so, about 64,000 (15%) were called active. The shares of active, inactive and inconclusive entries below differ from those in the screen. Calls follow the shape of the dose curve; as a rule, active = well fitted inhibition curve with a large enough effect; inconclusive = small, poorly fitted or top-dose-only effect; inactive = flat fitted curve, though single readings scatter. Potencies of inconclusive entries are left out as doubtful fits.

experiment: qHTS for Inhibitors of human tyrosyl-DNA phosphodiesterase 1 (TDP1): qHTS in cells in absence of CPT; conditions: DT40 Tdp1-/- hTDP1 cells, no CPT, ATP luminescence, 48 h; activity change, negative = growth inhibition: at 46.2 µM (top of the series); also: nearly all actives have a fitted effect of over 55% in size
How it was run: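 No-CPT arm: Tdp1-/-;hTDP1 DT40 cells (400/well) plus compounds, incubated ≥48 hr at 37 °C. Readout CellTiter-Glo luminescence.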
% is scaled to controls: 0 for no effect and ±100 for the full control effect; potency is read from the fitted curve at half-maximal effect; tags tell the direction and shape of the fitted curve.

Row | SMILES | Potency | activity change, negative = growth inhibition
1 | CCOc1ccccc1N(CC(=O)N(C)Cc1ccccc1)S(=O)(=O)c1ccccc1 | inconclusive [inhibitor, single point] | –
2 | COc1ccc(CN=C2NC(=O)CC(C(=O)Nc3ccc(F)cc3)S2)cc1 (configuration not stated) | inconclusive [inhibitor, single point] | –
3 | COc1ccc(NC(=O)CN(c2cc(C)cc(C)c2)S(=O)(=O)c2c(C)n[nH]c2C)cc1 | inconclusive [inhibitor, full curve, poor fit] | –
4 | Cc1ccc(CCNC(=O)C2CCCN(S(=O)(=O)c3c(C)noc3/C=C/N(C)C)C2)cc1 (configuration not stated) | inconclusive [inhibitor, single point] | –
5 | Cc1ccc(/C=C/c2onc(C)c2S(=O)(=O)N2CCC(C(=O)N3CCOc4ccc(C)cc43)CC2)cc1 | inconclusive [inhibitor, partial curve] | –
6 | C#CCNC(=O)C1=C[C@@H](C2CCCCC2)C[C@@H](OCCCCO)O1 | inconclusive [inhibitor, single point] | –
7 | Cc1csc(NC(=O)CCn2c(=O)sc3ccccc32)n1 | inconclusive [inhibitor, single point] | –
8 | COc1ccc(C)cc1NC(=O)CCc1c(C)nn(-c2ccc(N3CCCCC3)nn2)c1C | active: 25.9 µM | –
9 | Cc1ccc(S(=O)(=O)N2CCN(c3nc(C(C)C)c4c(c3C#N)CC(C)(C)OC4)CC2)cc1 | active: 15.8 µM | –
10 | Nc1cc(C(=O)O)ccc1Sc1ccccc1C(=O)O | inconclusive [inhibitor, single point] | –
11 | NC(=O)N[C@@H](Cc1c[nH]c2ccccc12)C(=O)OCC(=O)N1CCCCC1 | – | inactive: -14.7%
12 | Cc1ccc(S(=O)(=O)/N=C2/NC(=O)/C(=C/c3cccnc3)S2)cc1 | active: 29.1 µM | –
13 | CC1CCc2sc(C(=O)NNC(=S)NC3CC3)cc2C1 (configuration not stated) | – | inactive: 2.05%
14 | Cc1ccc(C)c(Cc2c(C)nc3c(C(=O)N4CCOCC4)cnn3c2C)c1 | active: 22.4 µM | –
15 | O=C(CN1C(=O)COc2ccc(S(=O)(=O)N3CCCCCC3)cc21)Nc1cccc(Cl)c1 | active: 20.6 µM | –
16 | FC(F)(F)c1cc(-c2cccs2)nc2nc(N3CCOCC3)sc12 | inconclusive [inhibitor, single point] | –
17 | CC1Cc2cc(-c3csc(NC(=O)Cc4cccs4)n3)ccc2N1S(C)(=O)=O (configuration not stated) | active: 23.1 µM | –
18 | Cc1ccc(S(=O)(=O)N(C)CC(O)Cn2c3ccccc3c3ccccc32)cc1 (configuration not stated) | inconclusive [inhibitor, single point] | –
19 | COc1ccc(CN(C)C(=O)c2ccccc2Sc2ccccc2C#N)c(OC)c1 | active: 23.1 µM | –
20 | COc1ccc(-c2cc(C(=O)Oc3ccc(C)cc3)c3cc(C)ccc3n2)cc1 | – | inactive: -1.5%
21 | N#Cc1nc(-c2ccc(OCc3ccccc3)cc2)oc1NCCCn1ccnc1 | active: 20.6 µM | –

Row | SMILES | Potency | activity change, negative = growth inhibition
22 | Cc1ccc(C(C)NC(=S)NCc2ccc(F)cc2)cc1C (configuration not stated) | inconclusive [inhibitor, single point] | –
23 | CCCCCn1nc(C(=O)OCc2nc(N)nc(Nc3ccccc3)n2)c2ccccc2c1=O | inconclusive [inhibitor, single point] | –
24 | CC(=O)c1cccc(N2Cc3ccccc3C2=NC(=O)CCl)c1 | inconclusive [inhibitor, single point] | –
25 | COc1cc(C)ccc1OCCOCCOc1ccccc1[N+](=O)[O-] | inconclusive [inhibitor, single point] | –
26 | CC1CCN(c2nn3c(=O)c(C(=O)NCCc4ccccc4)cnc3s2)CC1 | inconclusive [inhibitor, single point] | –
27 | Cc1ccc(S(=O)(=O)N2CCCC2C(=O)NC2CCCCC2)cc1 (configuration not stated) | inconclusive [inhibitor, single point] | –
28 | O=S1(=O)N=C(N(Cc2cccs2)c2ccc(O)cc2)c2ccccc21 | inconclusive [inhibitor, partial curve, poor fit] | –
29 | Cc1c(-c2ccccc2)sc(N)c1C(=O)N1CCOCC1 | inconclusive [inhibitor, single point] | –
30 | Cc1cc(=O)n(C(C)C(=O)N2CCCc3ccccc32)c2c1c(C)nn2-c1ccccc1 (configuration not stated) | inconclusive [inhibitor, single point] | –
31 | CC(=O)N1CCc2c(sc3nc(SCC(C)C)n(-c4ccc(C)c(Cl)c4)c(=O)c23)C1 | inconclusive [inhibitor, single point] | –
32 | Cc1ccc2nc(-c3ccccc3)c(Cc3ccccn3)n2c1 | inconclusive [inhibitor, single point] | –
33 | O=C(C[n+]1ccccc1)N/N=C/c1c(F)cccc1Cl | inconclusive [inhibitor, single point] | –
34 | CCN(C[C@H]1N[C@@](CC)(C(=O)OC)[C@H]2C(=O)N(C)C(=O)[C@@H]12)C(=O)Nc1ccc(F)cc1 | – | inactive: -6.24%
35 | O=C(Nc1ccc(Cl)cc1)NC1CCCCNC1=O (configuration not stated) | – | inconclusive: -6.27% [inhibitor]
36 | COc1ccc(NC(=S)Nc2cc(-c3ccccc3)[nH]n2)cc1Cl | inconclusive [inhibitor, single point] | –
37 | Cc1ccccc1CN1C(=O)c2ccccc2C1c1nnnn1C(C)C (configuration not stated) | – | inconclusive: -32.9% [inhibitor]
38 | Cc1nc2scc(C)n2c(=O)c1S(=O)(=O)Nc1ccc(N2CCN(S(C)(=O)=O)CC2)cc1 | active: 18.4 µM | –
39 | CC(C)[C@H](NC(=O)NC1CCN(Cc2ccccc2)CC1)C(=O)O | – | inactive: -16.4%
40 | COC(=O)c1ccc(C2c3[nH]c4ccccc4c3C[C@H]3C(=O)N(C4CCN(Cc5ccccc5)CC4)CC(=O)N23)cc1 (some centres not stated) | inconclusive [inhibitor, single point] | –
41 | CCOc1ccc(CCNC(=O)CS(=O)Cc2nc(-c3ccc(OC)c(OC)c3)oc2C)cc1OCC (configuration not stated) | inconclusive [inhibitor, single point] | –
42 | Cc1ccc(NC(=O)CSc2nc3ccccc3nc2N2CCOCC2)c(C)c1 | inconclusive [inhibitor, single point] | –
